Measurements as given in the supplement of paper PMC3334620.
Over roughly 33,000 sequences, “E-score (-0.5 to 0.5)” has its median near -0.016; the highest 2% begin near 0.32. The list shows a part of the results.

target: T1, Stp1 (UniProt B3LFK1); assay: PBM E-score (8-mer binding enrichment) (E-score (-0.5 to 0.5)); higher = stronger / more preferred TF binding; most listed sequences are background and not binding sites; conditions: protein concentration: 200 nM; construct: GST-full length
T1 sequence: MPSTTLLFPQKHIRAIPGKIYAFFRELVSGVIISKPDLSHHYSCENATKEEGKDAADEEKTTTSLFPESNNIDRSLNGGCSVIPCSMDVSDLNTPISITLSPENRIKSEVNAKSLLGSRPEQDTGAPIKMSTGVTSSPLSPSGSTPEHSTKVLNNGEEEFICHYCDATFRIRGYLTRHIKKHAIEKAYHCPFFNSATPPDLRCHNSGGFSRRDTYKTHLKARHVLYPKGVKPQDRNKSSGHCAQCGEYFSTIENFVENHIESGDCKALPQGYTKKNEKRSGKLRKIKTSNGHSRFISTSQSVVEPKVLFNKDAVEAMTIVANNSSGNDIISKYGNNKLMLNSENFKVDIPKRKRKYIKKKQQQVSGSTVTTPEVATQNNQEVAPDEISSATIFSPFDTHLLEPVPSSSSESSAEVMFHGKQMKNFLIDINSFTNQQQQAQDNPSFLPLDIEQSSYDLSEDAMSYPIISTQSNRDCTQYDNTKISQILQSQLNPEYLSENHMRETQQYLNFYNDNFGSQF
Procedure, shortened: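 PURExpress in vitro transcription/translation supplied GST-tagged yeast transcription factors, either full-length or DNA-binding domain. Applied at about 100-200 nM to universal all-10-mer Agilent arrays double-stranded by primer extension, the bound protein was detected with fluorescent anti-GST. E-scores, modified Wilcoxon-Mann-Whitney statistics, were given by the Universal PBM Analysis Suite to ungapped eight-base words pooled with their reverse complements after masliner normalisation.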

Row | Sequence | PBM E-score
1 | TACGTTGA | -0.072
2 | CGAGAGAA | -0.103
3 | CTCGTTTC | -0.0446
4 | CGAGGCAC | 0.384
5 | CCGTAATA | 0.0764
6 | GGAATTAC | -0.0176
7 | TCCCGGAA | -0.0693
8 | ATTTTAAC | -0.0293
9 | ATTCACCC | -0.141
10 | AAGACAGC | -0.154
11 | AGAATCCT | -0.205
12 | TAGTGTCA | 0.0697
13 | AGCTTCAA | 0.0483
14 | ACCACTGA | 0.0768
15 | ATATAGTC | 0.0848
16 | CCAATGAA | -0.205
17 | CCCCCTAC | -0.29
18 | CGTGTATC | 0.0372
19 | GCTGAACC | -0.0468
20 | AAGATTCC | 0.0824
21 | ATGAAATC | 0.135
22 | GGAGTACC | -0.281
23 | ACACCCGA | -0.0815
24 | CCCTCGTA | -0.0643
25 | AGGGCGTG | -0.0356

Row | Sequence | PBM E-score
26 | CGCCCGGC | -0.0372
27 | AGTATATG | -0.0746
28 | CATTGACA | 0.0464
29 | GGAACCGA | -0.0457
30 | CACGAAGG | -0.0374
31 | AACGACGT | 0.0278
32 | CTGCATGA | -0.13
33 | ATGACCAT | -0.0894
34 | CCAACGCG | 0.0582
35 | AACGCCAT | 0.169
36 | GAGCAAAC | -0.0784
37 | AGGACTAT | -0.132
38 | GAAGCGGA | -0.0314
39 | ACGCGAGA | -0.0293
40 | GCAAACGA | 0.0507
41 | CTATCTTC | -0.0671
42 | CATCACAG | -0.0415
43 | CCCGGCGA | -0.0779
44 | CCCCTAAC | -0.0546
45 | AGGAGCCG | 0.247
46 | CCCTATTC | -0.0984
47 | ATTCCCGC | 0.196
48 | CCCGCTGA | -0.297
49 | ACATAGCC | 0.0177
50 | AGAGAACA | -0.0119

Row | Sequence | PBM E-score
51 | AACTATTC | 0.0119
52 | TGTGGAAA | 0.195
53 | ATCTTTTC | 0.0462
54 | ACTCCACC | -0.194
55 | GGTGGTCA | -0.177
56 | AGGCAGAG | -0.00743
57 | ACGGGAGT | 0.0109
58 | AAGCCCTA | -0.055
59 | CTTAACAC | -0.027
60 | CCCTGCAA | -0.0457
61 | CAAGCGTA | -0.11
62 | AGTTATTG | 0.0609
63 | CACCTCGC | -0.156
64 | AAGGGGCC | -0.127
65 | CTGGCCAA | -0.248
66 | CGGCTATC | 0.256
67 | ACTTAAAA | 0.173
68 | ATGCGCGC | 0.209
69 | GTTATCGA | -0.0294
70 | ACGGTTGC | -0.134
71 | GTATCAAA | 0.154
72 | CCTTGGCA | -0.188
73 | CCCATAGG | -0.0795
74 | CACATTCC | -0.107
75 | ATTCCCGG | 0.0195

Row | Sequence | PBM E-score
76 | ACAGCGAC | -0.198
77 | AGGTAGAG | -0.269
78 | CGGCAGTA | 0.271
79 | CCGTAGAA | 0.183
80 | ACCGCGAC | 0.0496
81 | AAGCTTGC | -0.1
82 | GGACGCTA | -0.244
83 | GGCCCATA | -0.115
84 | GCTCAAGC | 0.0943
85 | CACGTGGG | 0.139
86 | AGAAAATA | 0.0815
87 | CCCGGTCC | -0.335
88 | TTAAGAAA | 0.105
89 | AAAAATAA | 0.174
90 | AAATCTTC | -0.114
91 | GAATTCCA | -0.0037
92 | TCCCAGGA | -0.255
93 | GATAGAAA | -0.0251
94 | CCGATCGA | 0.0713
95 | AGTCACGC | -0.224
96 | ACCTGCCT | -0.153
97 | ATACGGAA | 0.268
98 | CTAGATAG | -0.127
99 | TGGCCCCA | -0.356
100 | CCTAAGAG | -0.0473

Row | Sequence | PBM E-score
101 | ACTTGGGC | -0.139
102 | AGAGAACC | -0.189
103 | CCGTGCAG | 0.315
104 | GACTACTC | -0.125
105 | GAAGCACC | -0.186
106 | ATCTTGCA | 0.216
107 | CCGGACAC | -0.00389
108 | GCATATCC | -0.0106
109 | CGTCCAGA | -0.0946
110 | CAAAGATA | 0.0921
111 | TACTACCA | -0.123
112 | CTCGCCGA | -0.0672
113 | AGTATAAT | 0.127
114 | ACGTGTAC | -0.219
115 | AGGCGTTA | 0.236
116 | CAATCCAA | 0.0601
117 | ATCGGATC | -0.0636
118 | ATAGAAAA | 0.0396
119 | AAGCCGCT | 0.265
120 | AGACGGAT | 0.14
121 | CAGAGGCA | -0.00947
122 | ACCGTATA | -0.0953
123 | AGAGCAGA | -0.119
124 | CGCGCACC | 0.183
125 | ATATGTAC | 0.194

Row | Sequence | PBM E-score
126 | CGAATTCG | 0.0756
127 | GAACGCGA | -0.204
128 | AATGACGA | -0.00546
129 | CCTTGTCA | -0.0309
130 | AGCGCTCA | -0.122
131 | AAATGTGA | -0.0279
132 | CCTGAATA | 0.0967
133 | CACACAGC | 0.155
134 | AATATTGC | 0.186
135 | AATTGCGT | 0.138
136 | CATAATAA | 0.134
137 | AGATACTG | 0.123
138 | ACTCTCAC | 0.0334
139 | AGCTGGGC | -0.089
140 | GCAGTCAA | -0.2
141 | GATCATTA | 0.0868
142 | CGAACGCC | 0.228
143 | AGCGGAAT | 0.0315
144 | CCAAATGA | 0.0462
145 | CACGATAG | -0.0449
146 | ACACGGTC | 0.0489
147 | AGTTACAG | 0.00907
148 | AATATTTA | 0.225
149 | ATGCACTG | -0.15
150 | CTAAAAAG | 0.135

Row | Sequence | PBM E-score
151 | CAGTGTCG | -0.191
152 | GCCAAGGC | -0.059
153 | GGCATTGA | 0.268
154 | AAATTCGA | 0.0925
155 | AGATCGAC | -0.141
156 | TCCACACA | 0.0753
157 | CGTATAGC | 0.0616
158 | AGAACAAT | 0.163
159 | CACTACTC | 0.0699
160 | ATTGGGAG | -0.179
161 | TAGCAATA | 0.0285
162 | ACCAAAGA | 0.165
163 | CCAACACC | -0.208
164 | AAAACTCC | -0.234
165 | AAAGTGTG | -0.00826
166 | GTCGTAAA | 0.0706
167 | AGCTATCA | -0.0431
168 | GTCCAGAC | -0.253
169 | AGCAACAC | 0.0741
170 | GGTCCACC | -0.214
171 | AGTCTACG | -0.299
172 | CAGGGTAG | -0.2
173 | CCGGGCTA | -0.215
174 | CTAGTCAC | -0.148
175 | TACAAGAA | 0.0192

Row | Sequence | PBM E-score
176 | GTAAGCAC | 0.0535
177 | AACGGTAA | -0.0192
178 | ACTCCCGA | -0.302
179 | GTAGGGTA | 0.0059
180 | GCTACTGA | -0.0112
181 | CAGTGACC | -0.214
182 | CCTGCAAA | -0.176
183 | GAAAGAAA | 0.172
184 | AGATTTAA | 0.0854
185 | AAGGTAGA | -0.123
186 | AACTACCC | -0.312
187 | ATACGTGC | 0.158
188 | GTTGACAA | 0.283
189 | CACAGGTG | -0.154
190 | CTGCCCAA | -0.177
191 | ATGCACCG | -0.0364
192 | AAAGAATT | 0.0966
193 | CCGCACAA | 0.285
194 | GAGTTGCA | -0.127
195 | CTCGAATA | -0.0666
196 | ACACGCGC | 0.199
197 | CTAAGGCA | 0.253
198 | AATCGTAG | 0.02
199 | CGTCCCAC | -0.139
200 | GACACGAC | 0.0333

Row | Sequence | PBM E-score
201 | ACGTGACT | -0.206
202 | CCTCGCTC | 0.165
203 | TGGTTCAA | 0.104
204 | CCTAGCAA | -0.0594
205 | AATCGACT | -0.205
206 | CTAGGAGC | -0.171
207 | CAATAGCC | -0.0108
208 | CAAAGAGG | 0.00242
209 | GATTCATA | 0.0474
210 | ACTATAAG | 0.056
211 | GAGGTGGC | -0.0295
212 | GCCCCCAA | -0.354
213 | ACATTGGT | -0.107
214 | GGTAGAAC | -0.164
215 | ATGTGGGG | -0.262
216 | AGCTGTAG | -0.117
217 | AATGACTA | -0.203
218 | AAGATGAT | 0.0573
219 | CGACCGCA | -0.129
